Test results: paper PMC4207660, “Identification and Characterization of Hundreds of Potent and Selective Inhibitors of Trypanosoma brucei Growth from a Kinase-Targeted Library Screening Campaign” (PLoS Neglected Tropical Diseases, 2014)
≈ marks a conversion by molar mass, not a printed value.

Key:
[1] = molecular target: T1, Human Serum Albumin (HSA) (Homo sapiens, UniProt P02768); experiment: Protein binding assay (HPLC stationary phase), HSA; format: in vitro ADME; details: Measured
T1 construct: purchased Chiral Technologies, France
Experimental: Chemically bonded Human Serum Albumin (HSA) and Alpha-1-acidglycoprotein HPLC stationary phases (Chiral Technologies, France) were used for measuring compounds' binding to plasma proteins, applying linear gradient elution up to 30% iso-propanol. The run time was 6 min, including the re-equilibration of the stationary phases with the 50 mM pH7.4 ammonium acetate buffer. The obtained gradient retention times were standardised using a calibration set of mixtures as described in the references. The average standard error of the assay depends on the binding strength and kinetics of the compounds.

[2] = test system: T. brucei brucei parasites (Lister 427 strain); experiment: Dose response growth inhibition assay (resazurin, 72 h); format: cell-based; details: Trypanosoma brucei; T. b. brucei growth inhibition; read-out: Tbb pEC50 (converted)
Experimental: Greiner sterile black clear bottom 384-well assay plates were pre-dispensing with 200 nL of compound in each well, from master plates at 1 mM (100% DMSO) containing selection from the GSK compound collection. Controls of 0% response (control 1, 200 nL of 100%DMSO) and 100% response (control 2, 200 nL of 1 mM pentamidine) were included in each assay plate in columns 6 and 18, respectively. Plates containing 200 nL of 100% DMSO were included randomly in the assay, to assess quality through all process. […] After this period, 10 µL of 200 µM resazurin solution in prewarmed HMI-9 were added to each well, and plates were allowed to incubate 2 hours more prior fluorescence reading in a Wallac EnVision Multilabel Plate Reader (Perkin-Elmer). Raw fluorescent data from the Envision plate reader were uploaded into GSK HTS database (ActivityBase). Activity of each well was normalized as a percentage of inhibition per-plate basis using the following equation: [drawing 1]
For dose-response experiments, serial compound dilutions of selected hits from the primary campaign were plotted against compound concentration. Dose response master plates were prepared by 3-fold dilutions (starting with 10 mM DMSO stock solutions), providing 11 concentrations. From these master plates, 200 nL per well was stamped in final assay plates, including the same controls describe in the primary single shot assay. Compounds were dispensed as serial dilution curve format, with 11 points at 3-fold dilution and 40 µM as starting top concentration (n = 2). Growth inhibition assay was performed as described in previous assay.
A 4-parameter equation describing a sigmoidal dose-response curve was then fitted with an adjustable baseline using ActivityBase XE Runner software. Fitting of dose-response curves and EC50 determination were normalized as percentage of inhibition based on controls. The curve-fit model was based on a 4-parameter equation: [drawing 2]
Trypanosome cell culture. […]

[3] = CLND kinetic solubility assay; format: physicochemical; details: phosphate buffered saline, pH 7.4, aqueous buffer, kinetic from dmso stock; Measured; read-out: Aq Sol
Experimental: 5 µL of 10 mM DMSO stock solution was diluted to 100 µL with pH 7.4 phosphate buffered saline, equilibrated for 1 hour at room temperature, filtered through Millipore MultiscreenHTS-PCF filter plates (MSSL BPC). The filtrate was quantified by suitably calibrated flow injection Chemi-Luminescent Nitrogen Detection.

HSA % binding [1] [%] | solubility kinetic at 1 h [3] [µM] | SMILES | EC50 [2] [nM]
82.4 | – | Nc1cc(-c2ccc3ncnc(N4CCOCC4)c3c2)cnc1N [NEU-0001111] | 126
96.63 | 21 (≈ 9.82 µg/mL) | COc1ncc(-c2ccc3nc(N)c(C#N)cc3c2)cc1NS(=O)(=O)c1ccc(F)cc1F [NEU-0001112] | 501
95.92 | 35 (≈ 12.3 µg/mL) | NS(=O)(=O)c1cccc(-c2ccc3nccc(-c4cn[nH]c4)c3c2)c1 [NEU-0001113] | 398
